Assay results from PubChem BioAssay AID1159614 (National Center for Advancing Translational Sciences (NCATS), 2016).
Screen size: about 45,000 compounds; about 65 (0.1%) were called active. The call rests on the fitted dose curve; in most records, active means well fitted activation curve with a large enough effect; inconclusive means small, poorly fitted or top-dose-only effect; inactive means no such curve, though single readings can be large or run the other way. The list shows a part of the results.

Target: Galactocerebrosidase (Homo sapiens) (UniProt P54803)
Assay: A Novel Cell-Based Assay to Identify Small Molecules for B -Galactocerebrosidase; further: 0% is about no effect; nearly all actives have a fitted effect of over 65% in size
Settings: 145M-Twi-hGALC-G270D cells (Twitcher mouse brain line with human GALC G270D), HMU-beta-Gal fluorescence, 48 h; series mostly up to 57.5 µM; activation: at the top concentration
Method in brief: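 Fluorescence readout: HMU-β-gal cleavage by mutant GALC (0.1 mM final, citrate/phosphate pH 5.2 with 1 mg/mL taurocholate), stopped with carbonate/bicarbonate plus Triton X-100. Cells: murine Twitcher 145M-Twi expressing human G270D GALC; qHTS for activators.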

UniProt P54803, sequence (P54803 whole entry, looked up): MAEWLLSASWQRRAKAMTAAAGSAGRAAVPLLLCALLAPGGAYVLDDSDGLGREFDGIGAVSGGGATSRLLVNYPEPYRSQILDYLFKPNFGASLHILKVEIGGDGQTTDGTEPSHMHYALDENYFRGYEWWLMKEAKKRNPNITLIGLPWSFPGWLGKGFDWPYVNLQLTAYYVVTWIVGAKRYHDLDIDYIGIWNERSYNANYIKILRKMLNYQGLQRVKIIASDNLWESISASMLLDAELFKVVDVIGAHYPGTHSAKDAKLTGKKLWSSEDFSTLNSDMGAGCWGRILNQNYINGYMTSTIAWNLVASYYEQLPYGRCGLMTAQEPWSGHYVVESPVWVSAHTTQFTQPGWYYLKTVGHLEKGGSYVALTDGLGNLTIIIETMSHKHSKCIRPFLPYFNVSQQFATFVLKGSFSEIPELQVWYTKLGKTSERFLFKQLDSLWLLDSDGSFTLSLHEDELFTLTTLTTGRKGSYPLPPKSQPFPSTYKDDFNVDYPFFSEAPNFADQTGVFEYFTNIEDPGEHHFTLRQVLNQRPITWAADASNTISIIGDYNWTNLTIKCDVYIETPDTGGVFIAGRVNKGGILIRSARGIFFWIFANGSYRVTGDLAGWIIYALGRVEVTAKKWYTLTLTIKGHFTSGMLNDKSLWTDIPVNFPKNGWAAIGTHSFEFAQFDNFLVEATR

activation, inactive:
CCCCN(CCCC)CCNC(=O)c1cn(C)c2ccc(S(=O)(=O)N3CCOCC3)cc2c1=O -14.3%
Cc1c(Cl)cccc1NS(=O)(=O)c1ccc2[nH]cc(C(=O)NC3CCCC3)c(=O)c2c1 -4.74%
Cc1ccc2c(c1)c1c(c(=O)n(-c3ccccc3)c(=O)n1CC(=O)N1CCCC1)n2C -7.89%
CCOc1ccc(OCC)c(Nc2nc3ccccc3c3nnc(C)n23)c1 -9.79%
COc1cccc(N2CC(NC(=O)Cc3cccs3)CC2=O)c1 (centres undefined) -6.82%
Cc1ccccc1C(=O)Nc1ccccc1C(=O)OCc1cc(=O)n2ccsc2n1 -17%
CN1C(=O)CC(=O)N(C)c2cc(S(=O)(=O)N(C)Cc3ccccc3)ccc21 -14%
Cc1cc(C)c(Cn2c3ccccc3c3cnn(CC(=O)N4CCCCC4)c(=O)c32)c(C)c1 -5.81%
CCn1cc(C(=O)NCCc2ccc(C)cc2)c(=O)c2cc(S(=O)(=O)N(C)C)ccc21 -7.51%
COc1ccc2c(c1)c1c(c(=O)n(-c3ccc(OC)c(OC)c3)c(=O)n1Cc1ccccc1C)n2C -21%
Cc1ccc(S(=O)(=O)c2nc(-c3cccs3)oc2N2CCCCC2)cc1 -20%
Cc1ccc(-n2ncc(C(=O)NCCN3CCN(C)CC3)c2C2CCN(C(=O)OC(C)(C)C)CC2)c(C)c1 -22.8%
CC(=O)c1cccc(NS(=O)(=O)c2ccc3[nH]c4c(c3c2)CCCCCC4)c1 -17.1%
O=C(c1noc2c1CCCCC2)N1CCN(c2ccc(Cl)cc2)CC1 -12.5%
COc1ccccc1NC(=O)Cn1c(=O)n(Cc2ccc3c(c2)OCO3)c(=O)c2oc3ccccc3c21 -2.51%
CCc1ccc(-c2cn3c(n2)sc2cc(C(=O)NCCc4ccc(OC)cc4OC)ccc23)cc1 -15.6%
COc1ccc(OC)c(S(=O)(=O)Nc2cc3c(cc2C)n(C)c(=O)c(=O)n3C)c1 -14.2%
CN(Cc1ccccc1)C(=O)CN1C(=O)CSc2ccc(S(=O)(=O)N3CCOCC3)cc21 -16.2%
COc1ccc(NC(=O)CCS(=O)(=O)c2nc(-c3cccs3)cc(C(F)(F)F)n2)cc1OC -16.7%
Cc1ccc(NC(=O)CN(c2ccccc2)S(=O)(=O)N(C)C)cc1Cl -18.5%
Cc1ccc(NC(=O)NCc2ccc3c(c2)CCN3C(=O)c2ccccc2)c(Cl)c1 7.93%
C#CC(C)(C)NS(=O)(=O)c1cc(-c2nnc(Nc3ccc(C)cc3)c3ccccc23)ccc1C -9.14%
Cc1ccc(NC(=O)c2nn(C)c3c2CS(=O)(=O)c2ccccc2-3)c(Cl)c1 -7.83%
NS(=O)(=O)c1ccc(CCNC(=O)CCCCCn2c(=O)[nH]c3ccccc3c2=O)cc1 -10.4%
COc1ccc(NC(=O)c2cn(CC(C)C)c(=O)c3cc(OC)c(OC)cc23)cc1Cl -0.607%
CCc1cccc(NC(=O)CSc2ncc3c(n2)-c2ccc(Cl)cc2N(Cc2ccccc2)S3(=O)=O)c1 0.009%
COc1cccc(C(=O)NC2(C(F)(F)F)C(=O)Nc3c2c(=O)[nH]c(=O)n3-c2ccc(C)cc2)c1 (centres undefined) -11%
CCc1c(C)sc2c1CCN(C(=O)Nc1cc(OC)c(OC)c(OC)c1)C2c1ccccc1 (centres undefined) -12.5%
Oc1c(C(c2ccccc2)N2CCC3(CC2)OCCO3)sc2nc(-c3ccco3)nn12 (centres undefined) -14.9%
Cc1nc(N2CCOCC2)c2c(C(=O)NCc3cccc(Cl)c3)c(C)oc2n1 -10.9%
CCOC(=O)Cc1ccc(NC(=O)Nc2cccc(OCc3cc(=O)n4cc(C)ccc4n3)c2)cc1 -12.6%
COc1ccc(-c2nc3c(c(SCC(=O)Nc4ccc(C(=O)O)cc4)n2)Cc2ccccc2O3)cc1 1.53%
O=C(CCCCCn1c(=O)c2sccc2n(CC(=O)Nc2cccc(Cl)c2)c1=O)NCc1ccc2c(c1)OCO2 -20.2%
Cc1ccc2c(=O)cc(C(=O)Nc3ccc(S(=O)(=O)N(C)Cc4ccccc4)cc3)oc2c1C -7.52%
COc1cccc(C(=O)NCc2cn3ccccc3n2)c1 -14.2%
O=C(CSc1nnc(-c2ccccc2)c(-c2ccccc2)n1)NC1CCCC1 -9.82%
CCOc1ccc(C(=O)c2cn(CC(=O)Nc3ccc(F)cc3)c3cc4c(cc3c2=O)OCCO4)cc1 -10.2%
CCOc1ccc(OCC)c(NS(=O)(=O)c2c(C(=O)N3CCCCCC3)c(C)n(C)c2C)c1 -13.8%
O=C(NCCCO)C(=O)NCC(c1ccc2c(c1)OCO2)N1CCOCC1 (centres undefined) -7.67%
CN(N=O)C(=O)N[C@@H]1[C@@H](O)[C@H](O)[C@@H](CO)O[C@@H]1O -18.2%
CCC(C)(C)NC(=O)C1CCN(S(=O)(=O)c2c(C)noc2/C=C/c2ccc(C)cc2)CC1 -21.3%
COc1ccc(NC(=O)C2=CC(c3ccc4c(c3)OCO4)=NS(=O)(=O)N2C)cc1 -23.7%
CCc1ccc(NC(=O)Cn2c(=O)n(CCCCC(=O)NCCc3ccccc3)c(=O)c3ccccc32)cc1 -22.7%
Fc1ccc(-n2cc(-c3ccccc3)c3c(NCCc4ccccc4)ncnc32)cc1 -7.94%
COc1ccc(C)cc1NC(=O)C1COc2ccccc2C1 (centres undefined) -20.9%
CCOC(=O)C1CCCN(S(=O)(=O)c2cc3c4c(c2)CC(=O)N4CCC3)C1 (centres undefined) -4.98%
COc1ccc(C2c3c(oc4ccc(C)cc4c3=O)C(=O)N2CCCN2CCOCC2)cc1OC (centres undefined) -13.3%
CCCCCCOC(=O)NC(=N)c1ccc(NCc2nc3cc(C(=O)N(CCC(=O)OCC)c4ccccn4)ccc3n2C)cc1 -11.8%
COc1ccc(S(=O)(=O)NCC(c2ccc(N(C)C)cc2)N2CCCC2)cc1 (centres undefined) -14.2%
CCOC(=O)c1c(NC(=O)COc2c(C)cc(Cl)cc2Cl)sc2c1CCCC2 -5.23%
COc1ccc(-c2noc(CC(=O)Nc3ccc(Br)cc3C)n2)cc1 -8.18%
COc1cccc(CNC(=O)c2oc3c(c2C)-c2nn(Cc4cccc(Cl)c4)cc2CC3)c1 -28.8%
Cc1ccc(-n2c(=O)c3c4c(sc3n(Cc3ccccc3C)c2=O)CCC4)cc1C -15%
CC(=O)NC(Cc1ccccc1)C(=O)O (centres undefined) -8.3%
Cc1cc(C)c(/C=C/c2onc(C)c2S(=O)(=O)N2CCC(C(=O)N(C)Cc3ccccc3)CC2)c(C)c1 -14.4%
Cc1ccc(NC(=O)Nc2nnc(N(C)C3CCCCC3)s2)c(Cl)c1 -4.8%
Clc1cccc(-n2cc(-c3ccccc3)c3c(N4CCCCC4)ncnc32)c1 -8.58%
COc1ccc(O)cc1 -11.7%
O=C(Nc1ccc2c(c1)OCO2)c1cc(-c2ccc(Br)cc2)on1 -21.5%
Cc1ccccc1C(=O)Nc1nc2nc(-c3ccccc3)cc(=O)n2[nH]1 -6.36%
NCCc1cnc[nH]1 -7.37%
CCN1C(C(=O)c2ccccc2)=C(OC(=O)c2ccc(OC)cc2)c2ccccc2S1(=O)=O -9.59%
Cn1c(=O)c2c(-c3ccc(Br)cc3)n(CCc3ccccc3)cc2n(C)c1=O -28.2%
CCc1cccc(C)c1NC(=O)Cn1cc2c(n1)CCCC2 -14.3%
CCN(Cc1ccccc1)C(=O)CCc1c(C)nc2c(c(C)nn2-c2ccc(C)c(C)c2)c1C -2.49%
Cc1ccc(NC(=O)c2oc3ccc(S(=O)(=O)N4CCCCC4)cc3c2C)cc1Cl -14.2%
CCOc1ccc(Nc2nc3c(S(=O)(=O)c4cccc(Cl)c4)nnn3c3ccsc23)cc1 -14.5%
CC1=C(C(=O)Nc2ccccc2)C(c2ccc(C(=O)O)cc2)n2ncnc2N1 (centres undefined) -20.5%
CCc1ccc(OCC(=O)N(Cc2ccco2)Cc2ccccc2Cl)cc1 -12.5%
COc1ccccc1N1CCN(C(=O)c2cn(C)c3ccc(S(=O)(=O)N(C)C4CCCCC4)cc3c2=O)CC1 -14.7%
CCOc1ccc(NC(=O)c2cnn(-c3ccc(C)c(C)c3)c2C2CCN(C(=O)OC(C)(C)C)CC2)cc1 -17.5%
Cc1ccc(C(=O)NCC(c2ccc3c(c2)OCO3)N2CCN(C)CC2)cc1C (centres undefined) -9.32%
CCc1noc(-c2ccc(NCc3ccccc3)c([N+](=O)[O-])c2)n1 -6.66%
CCOC(=O)c1cnc2c(ccc3ccccc32)c1Nc1cccc(C(F)(F)F)c1 -6.73%
Cc1ccc(NC(=O)CCCn2c(=O)c3cccn3c3ccccc32)c(C)c1 -8.56%
Cc1nn(CCCC(=O)NCCc2ccc(Cl)cc2)c(=O)c2c1sc1ccccc12 -20.9%
Cc1ccccc1OCC(=O)Nc1ccccc1C(=O)OCc1cc(=O)n2ccsc2n1 -12.1%
Cc1cc(C(F)F)n2nc(C(=O)Nc3cccc(Cl)c3C)nc2n1 0.539%
N=c1c(C(=O)NCC2CCCO2)cc2c(=O)n3ccccc3nc2n1CCCO (centres undefined) -4.77%
COc1ccc(Cn2c(C(=O)O)c(CNCCc3ccco3)c3ccc(C)cc32)cc1 -11.6%
CCOc1cc(C(=O)NCCc2csc3nc(-c4ccccc4F)nn23)cc(OCC)c1OCC 1.06%
COc1ccc(F)cc1S(=O)(=O)NCC(c1ccco1)S(=O)(=O)c1ccc(F)cc1 (centres undefined) -15.4%
O=C(CN1C(=O)CCn2nc(-c3ccccc3)cc21)NCc1ccc(F)cc1 -10.7%
CCOc1ccc(CNC(=O)C2CCN(S(=O)(=O)c3cn(C)cn3)CC2)cc1 -11%
COc1ccc2c(c1)c1c(c(=O)n(-c3ccccc3)c(=O)n1CC(=O)NCCC1=CCCCC1)n2C -5.68%
Cn1ncc2c(NCc3ccccc3Cl)nc(NCCO)nc21 -14.5%
Cc1c(-c2ccccc2)oc2c(C(=O)OCCN3CCCCC3)cccc2c1=O 8.36%
O=C(Nc1ccc(-n2nncc2-c2ccccc2)cc1)c1cccc(F)c1 -15.8%
Cc1ccccc1N(C)S(=O)(=O)c1nnc(NC(=O)c2ccccc2F)s1 0.527%
COc1ccc(-n2ccnc2SCC(=O)Nc2nnc(C)s2)cc1 -16.1%
COc1cc(CN2CCc3nc(N4CCN(c5ncccn5)CC4)ncc3C2)cc(OC)c1OC -8.28%
Cc1cc(C)cc(NC(=O)Cn2c(=O)n(-c3cc(C)cc(C)c3)c(=O)c3oc4ccccc4c32)c1 -3.2%
Cc1nc2ccccc2n2c(-c3ccccc3)c3c(=O)n(C)c(=O)n(C)c3c12 -10.4%
CCOC(=O)Cn1c(=O)n(C2CCCCC2)c2nc(-c3ccc(CC)cc3)nc(C(N)=O)c21 -3.5%
